Source: the RNAGym collection of RNA variant scans (doi:10.1073/pnas.2313332121)
This sample is rich in variants without activity.

B1: TPR 5TU (parent)
chain: GGAUCUUCUCGAUCUAACAAAAAAGACAAAUCUGCCACAAAGCUUGAGAGCAUCUUCGGAUGCAGAGGCGGCAGCCUUCGGUGGCGCGAUAGCGCCAACGUUCUCAACUAUGACACGCAAAACGCGUGCUCCGUUGAAUGGAGUUUAUCAUG

Variants of: B1
Test: polymerase ribozyme fitness, log enrichment relative to wild type (log ratio); higher = more active; in vitro selection for triplet polymerase activity
In short: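 One round of in vitro selection, in triplicate, was applied to PCR-built, transcribed mutant libraries of each subunit of a heterodimeric triplet polymerase ribozyme. The steps were annealing with a biotinylated primer, partner subunit and triplets, incubation frozen at −7 °C, gel excision of extended constructs, streptavidin-bead capture and RT-PCR. Fitness is the logarithm, base 2, of genotype enrichment over wild-type enrichment from inverse-variance-weighted replicate averages of Illumina-sequenced inputs and outputs, keeping genotypes with ≥10 input reads and ≥1 read per output.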

Polymerase ribozyme fitness (log ratio), ≤ -4.2:
GGAUCUUCUCGAUCUAACAAAAUAGACAAACCUGCCACAAAGCUUGAGAGCAUCUUCGGAUGCAGAGGCAGCAGCCUUCGGUUGCGCGAUAGCGCCAACGUUCUCAACUAUGACACGCAAAACGCGCUCUCCGUUGAAUGGAAUUUAUCAUG
GGAUCUUCUCGAUCUAACAAAAUAGACAAAGCUGCCAUAAAGCUUGAGAGCAUCUUCGGAUGCAGAGGUGGCAGCCUUCGGUGGGGUGAUAGCGCCAACGUUCUCAACUAUGACACGCAAAACGCUUGCUCCGUUGAAUGGAGUUUAUCAUG
GGAUCUUCUCGAUCUAACAAAAUAGACAAAUCAGCCACAACGCUUGUGAGCAUCUUCGGAUGCAGAGGCGGCAGCCUUCGGUGGCGCGAUAGCGCCAACGUCCUCAACUAUGACACGCAAAACGCGUGCUCCGUAGAAUGGAGUUUAUCAUG
GGAUCUUCUCGAUCUAACAAAAUAGACAAAUCGGCCACAAAGCAUGAGAGCAUCUUCGGAUGCAGAGGCGGCAGCCUUCGAUGGCGCGAUGGCGCCAACGUUCUCAACUAUGACAUGCAAAAGGCGCGCUCCGUUGAAUGGAGUUUAUCAUG
GGAUCUUCUCGAUCUAACAAAAUAGACAAAUCUGCCACAAAGCAUGAGAGCAUCUUCGGAUGCAGAGGCGGCAGCCUUCGGUGGCGCGAUAGGGCCAACGUACUCAACUAUGACACGCAAAACGCGUGCUCCGUUGAAUGGAGUUUAUCAUG
GGAUCUUCUCGAUCUAACAAAAUAGACAAAUCUGCCACAAAGCAUGAGAGCAUCAUCGGAUGCAGAGGCGGCAGCCUUCGGUGGCGCGAUAGCGCCAACGUUCUCAACUAUGACACGCAAAUCGCGUGCUCCGUUGAAUGGAGUUUAUCAUG
GGAUCUUCUCGAUCUAACAAAAUAGACAAAUCUGCCACAAAGCUAGAGAGCAACUUCGGGUGCAGAGGCGGCAGCAUUCGGUUGAGGGAUAGCGCCAACGUUCUCAACUAUGAGACGUAAAGCGCGUGCUCCGUUGAAUGGAGUUUAUCAUG
GGAUCUUCUCGAUCUAACAAAAUAGACAAAUCUGCCACAAAGCUUGAGAGCAUCAUCGGAUGCAGAGGAGGCUGCCUUCGGUGGCGCGAUAGCGCCAACGUUCUCAACUAUGACACGCAAAACGCGAGCUCCGUUGAAUGGAGUUUAUCAUG
GGAUCUUCUCGAUCUAACAAAAUAGACAAAUCUGCCACAAAGCUUGAGAGCAUCAUCGGACGCAGAAGCGGCAGCCUUCGGUGGCGUGAUAGCGCCAACGUUCUCAACUAUGACACGCAAAACGCUUGCUCCGUUCAAUUGAGUUUAUCAUG
GGAUCUUCUCGAUCUAACAAAAUAGACAAAUCUGCCACAAAGCUUGAGAGCAUCUUCGGAAGCCAAGGCGGCAGCCUUCGGUGGCGCGAUAGCGCCAACGUUCUCAACUAUGACACGCAAAACGCGUGCUCCGUUGAACGGAGUUUAUCAUG
GGAUCUUCUCGAUCUAACAAAAUAGACAAAUCUGCCACAAAGCUUGAGAGCAUCUUCGGAAGCAGAGGCGGCAGCCUUCGGUGGCGAGAUAGCGCCAACGUUCUCAAACAUGACACGCAAAACGCGUGCUCCGUUGAAUGGAGUUUAUCAUG
GGAUCUUCUCGAUCUAACAAAAUAGACAAAUCUGCCACAAAGCUUGAGAGCAUCUUCGGAUGCAGAGGCGGCAGCCUGCGGUGGCGCGAUAGUGUCAACGUUCUCAACUAUGACACGCAAAACGCGUGCUCCGUUGAAUGGAGUUUAUCAUG
GGAUCUUCUCGAUCUAACAAAAUAGACAAAUCUGCCACAAAGCUUGAGAGCAUCUUCGGAUGCAGAGGCGGCAGCCUUCGGGAGCGCGAUAGCGCCAACGUUCUUAACUAUGACACGCAAAACGCGUGCUCCGUUGAAUGGAGUUUAUAAUG
GGAUCUUCUCGAUCUAACAAAAACGCCAAAUCUGCCACAAAGCUUGAGAGCAUCUUCAGAUGCAGAGGCGGCAACCUUCGGUGGGGCGAUAGCGCCAACGUUCUCAACUAUGACACGCAAAACGCGUGCUCCGUUGAACGAAAUUUAUCAUG
GGAUCUUCUCGAUCUAACAAAAACGACGAAUCUGCCACAAAGCUUGAGAGCAACUUCGGAUGCAGAGGCGGCAGCCUUCGGUGGCGCGAUAGCGCCAACGUUCUCAACUAUGACACGCAAAACGCGUGCUCCGAUGAAUGGAGUUUAUCAUG
GGAUCUUCUCGAUCUAACAAAAACGACUAAACUGCCACAAAGCUUGAGAGCAUCUUCGGAUGCAGAGGCGGCAGCCUUCGGUGGCGCGAUAGCGCCAACGUUCUCAACUAUGACACGCAAACCGCGUGCUCCGUUGAAUGCAGUUUAUCAUU
GGAUCUUCUCGAUCUAACAAAAACGACACAUCUGACACAAAGCUUGAGAGCAUCUUCGGAUGCAGAGGCGGCAGCCUUCGGUGGCGCGAUAGCGCCAACGUUCUCAACUAUGACACGCAAAACUCGUGCUCCGUUGAAUGGAGUUUAUCAUG
GGAUCUUCUCGAUCUAACAAAAACGACACAUCUGCCACAAAGCUUGAGAGCAUCUUCGGAUGCAGAGGCGGCAGCCUUCGGUGGCGAGUUAGCGCCAACGUUCUCAACUAUGACACGCAAAACGCGUGCUCCGUUGAAUGCAGUUUAUCAUG
GGAUCUUCUCGAUCUAACAAAAACGACAAGUCUGCCACAAAGCGUGAGAGCAUCUUCGGAUGCAGAGGCGUCAGCCUUCGGUGGCGCGAUAGCGCCAACGUUCUCAACUAUGACACGCAAAACGCGUGCUCCGUUGAAGGGAGUUUAAGAUG
GGAUCUUCUCGAUCUAACAAAAACGACAAGUCUGCCACAAAGCUUGAGAGCAUCAUCGGAUGCAGAGGCGGCAGCCUUCGGUGGCGCUAUAGCGCCAACGUUCUUAACUAUGACACGCAAAACGCGUGCUCCGCUGAAUGGAGCUUAUCAUG
GGAUCUUCUCGAUCUAACAAAAACGACAAUUCUGCCACAAAGCUUGACAGCAUCUUCGGAUGCAGAGGCGGCAGCCUUCGGUGGCGCGAUAGCGCUAACGUUCUCAACUAUGACACGCAAAACGCGUGCUCCGUUGAAUGGAGUUUAUCAUG
GGAUCUUCUCGAUCUAACAAAAACGACAAAUCUGCCCCAAAGCUUGAGAGCAUCUUCGAAUGCAGAGGCGGCAGCCUUCGGUGGCGCGAUAGCGCCAAGGUUCUCAUCUAUGACACGCAAAACGCGUGCUCCGUUGAAUGGAGUUUAUCAUG
GGAUCUUCUCGAUCUAACAAAAACGACAAAUCUGCCCCAAAGCUUGAGAGCAACUUCGGAUGCAGUGGCGGCAGCCUUCGGUGGCGCGAUAGCGACAACGUUCUCAACUAUGAGACGCAAAACGCGUGCUCCGUCGAAUGGAGAUUAUCAUG
GGAUCUUCUCGAUCUAACAAAAACGACAAAUCUGCCACCAAGCUUGAGAGCAUCUUCGGAUGCAGAGGCGGCAGCCGUCGGUGGCGCGAUAGCGCCAACGUUCUCAACUAUGACACGCAAAACGGGUGCUCCGUUGAAUGGAGUUUAUCAUG
GGAUCUUCUCGAUCUAACAAAAACGACAAAUCUGCCACGAAGCUUGAGAGCAUCUACGGAUGCGGAGGCGGCAGCCUUCGGUCGCGAGAUAGCGCCAACGCUCUCAACUAUGACACGCAAAACGCGUGCUCCGUUGAAUGGAGUUUAUCAUG
GGAUCUUCUCGAUCUAACAAAAACGACAAAUCUGCCACAUAGCUUGAGAGCAUCUUCGGAUGCAGAGGCGGCAGCCUUCGGUGGCGCGAUAGCACCAACGUUCUCAACUAUGACAAGCAAAACGCGUGCUCCGUUGAAUGGAGUUUAUCAUG
GGAUCUUCUCGAUCUAACAAAAACGACAAAUCUGCCACAACGCUUGAGAGCAUCUUCGGAUGCAGAGGCGGCAGCCUUCGGUGGCGCGAUAGCGCCAACGUUCUCAACUAUGACACGCAAAACGCGUGCUCCGUUGAAUGGAGUUUAUCAUG
GGAUCUUCUCGAUCUAACAAAAACGACAAAUCUGCCACAACGCUUGAGAGCAUCUUCGGAUGCAGAGGCGGCAGCCUUCGGUGGCGCGAUAGCGCCAACGUUCUCAACUAUGACACGCAAAACGCGUGCUCCGUUGAAUGGAGUUUAUCGUG
GGAUCUUCUCGAUCUAACAAAAACGACAAAUCUGCCACAACGCUUGAGAGCAUCUUCGGAUGCAGAGGUGGCAGCCUUAGGUGGAGCGAUAGCGCCAAUGUUCUCAACUAUGACACGCCAAACGCGUGCCCCGUUGAAUGGAGUUUAUCAUG
GGAUCUUCUCGAUCUAACAAAAACGACAAAUCUGCCACAACGCUUGAGAGCAUCUUCGGAUGCAGAGGCGGCAGCCUUCGGUGUCGCGAUAGCGCCAACGUUCUCAACUAUGACACGCAAAACGCGUGCUCCGUUGAAUGGAGUUUAUCAUG
GGAUCUUCUCGAUCUAACAAAAACGACAAAUCUGCCACAACGCUUGAGAGCAUCUUCGGAUGCAGAGGCGGCAGCCUUCGGUGGCGCAAUAGCGCCAAUGUUCUCAACUAUGACACGCAAAACGCGUGCUCCGUUGAAUGGAGUUUAUCAUG
GGAUCUUCUCGAUCUAACAAAAACGACAAAUCUGCCACAAAGCUUGUGCGCAUUUUCGGAUGCAGAGGCGGCAGGCUUCGGUGGAGCGAUAGCGCCAACGUUCUCAACUAUGACACGCAAAACGCGUGCGCCGUUGAAUGGAGUUUAUCAUG
GGAUCUUCUCGAUCUAACAAAAACGACAAAUCUGCCACAAAGCUUGAGCGCAUCUUAGGAUGCAGAGGCGGCAGCCUUCAGUGGCGUGACAGCGCCAACGUUCUCAACUAUGACACGCAAAACGCGUGCUCCGUUGAAUGGAGUUUAUCAUG
GGAUCUUCUCGAUCUAACAAAAACGACAAAUCUGCCACAAAGCUUGAGGGCAUCUUCGGAUGCAGAGGCGGCAGCCUUGGGUGGCACGAUAGCGCCAACGUUCUCAUCUAUGACACGCAAAACGCGUGCUCCGUUGAAUGGAGUUUAUCAUG
GGAUCUUCUCGAUCUAACAAAAACGACAAAUCUGCCACAAAGCUUGAGUGCAUCUUCGGAUGCAGAGGCGGCAGCCUUCGGUGGCGAGAUAACGCCAACGUUCUCAACUAUGACACGCAAAACGCGUGCUCCGUUGAAUUGAGUUUAUCAUG
GGAUCUUCUCGAUCUAACAAAAACGACAAAUCUGCCACAAAGCUUGAGUGCAUCUUCGGAUGCAGAGGCGGCAGCCUUCGGUGGCGCGAUAUCGCCAACGUUCUCAACUAUGACACGCAAAACGCGUGCUCCGUUGAAUGGAGUUUAUCAUG
GGAUCUUCUCGAUCUAACAAAAACGACAAAUCUGCCACAAAGCUUGAGAGCCGCUUCGGAUGCAGAGGCGGCAGCCUUCGGUGGCGCGAUAGCGCGGACGUUCUCAACUAUGACACGCAAAACGCGAGCUCCGUGGAAUGGAGGUCAUCAUG
GGAUCUUCUCGAUCUAACAAAAACGACAAAUCUGCCACAAAGCUUGAGAGCUACUUCGGAAGCAGAGGCGGCAGCAUGCGGUGGCGCGAUAGCGCCAACGUUCGCAACUAUGACACGCAAAACGCGUGCUCCGUUGAAUGGAGUUUAUCAUG
